The campaign covered roughly 310,000 compounds. About 2,200 (0.71%) showed an effect of 50% or more. The effect is printed as a negative number. This is one part of the list.
molecular target: human ether-à-go-go-related gene (hERG) potassium channel (human, UniProt Q12809); assay: primary screen, population patch clamp on CHO cells stably expressing hERG
Sequence (Q12809 whole entry, looked up): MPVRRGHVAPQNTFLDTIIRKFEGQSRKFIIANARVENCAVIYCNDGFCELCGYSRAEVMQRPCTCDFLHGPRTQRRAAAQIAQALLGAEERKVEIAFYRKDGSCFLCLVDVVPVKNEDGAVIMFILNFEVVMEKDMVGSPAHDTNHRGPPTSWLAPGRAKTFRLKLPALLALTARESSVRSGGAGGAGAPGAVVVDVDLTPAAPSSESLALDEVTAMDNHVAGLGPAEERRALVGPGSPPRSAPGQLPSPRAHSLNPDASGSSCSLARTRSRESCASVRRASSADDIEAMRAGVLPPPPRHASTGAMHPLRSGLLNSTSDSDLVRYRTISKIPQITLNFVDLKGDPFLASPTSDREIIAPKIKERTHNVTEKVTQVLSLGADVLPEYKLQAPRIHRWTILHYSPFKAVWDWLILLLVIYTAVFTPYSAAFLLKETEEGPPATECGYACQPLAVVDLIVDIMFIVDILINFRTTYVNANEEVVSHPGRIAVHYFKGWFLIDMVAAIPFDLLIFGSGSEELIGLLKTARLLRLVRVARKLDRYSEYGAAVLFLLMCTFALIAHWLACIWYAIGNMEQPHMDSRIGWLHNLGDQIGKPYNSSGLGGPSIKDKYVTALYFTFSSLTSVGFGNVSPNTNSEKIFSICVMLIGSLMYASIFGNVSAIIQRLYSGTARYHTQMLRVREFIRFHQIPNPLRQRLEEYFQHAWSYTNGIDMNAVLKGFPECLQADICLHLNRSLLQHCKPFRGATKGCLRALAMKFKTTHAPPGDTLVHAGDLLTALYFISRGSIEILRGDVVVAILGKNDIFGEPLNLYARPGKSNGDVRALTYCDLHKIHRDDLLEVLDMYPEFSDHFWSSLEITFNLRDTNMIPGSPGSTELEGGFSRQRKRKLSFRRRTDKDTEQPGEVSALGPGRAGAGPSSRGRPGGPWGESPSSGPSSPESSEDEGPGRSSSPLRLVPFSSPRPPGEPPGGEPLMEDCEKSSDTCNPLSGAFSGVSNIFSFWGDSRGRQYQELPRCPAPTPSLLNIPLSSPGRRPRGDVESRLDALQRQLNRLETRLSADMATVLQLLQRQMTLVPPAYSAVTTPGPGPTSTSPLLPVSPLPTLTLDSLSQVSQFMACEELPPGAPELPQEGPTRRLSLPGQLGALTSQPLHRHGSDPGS

Compound	hERG current change (%, negative = inhibition) at 1uM
CCCCn1c(N)c(N(CC(C)C)C(=O)COC(=O)C2(c3ccccc3)CC2)c(=O)[nH]c1=O	17.3%
COc1ccc(-n2sc3ccc(F)cc3c2=O)cc1	-0.925%
C[C@@H](OC(=O)N(C)Cc1ccccc1)[C@H]1O[C@]2(C)CCCC[C@H]1O2	12.2%
CCN1CCN(c2ccc(S(=O)(=O)N3CCOCC3)cc2NC(=O)c2ccc(F)cc2Cl)CC1	-0.421%
Cc1ccc(OCc2ccc(C(=O)Nc3cc(C)on3)o2)c([N+](=O)[O-])c1	0.863%
CCOc1ncccc1C(=O)Nc1ccc2nc(C)sc2c1	6.88%
CCCN1C2CCCC1CC(NC(=O)Nc1cccc(C(C)=O)c1)C2 (stereo not drawn)	2.64%
COCCN1CC(CNC(=O)c2cc(COc3ccccc3SC)on2)CC1=O (stereo not drawn)	2.39%
COc1ccc(/C=C/C(=O)Nc2ccc(N3CCOCC3)cc2)cc1	13.7%
CC12CCC(=O)N1C(C(=O)NNC(=O)c1ccc(Br)cc1)CS2 (stereo not drawn)	4.71%
COc1cccc(CCc2nnc(N)s2)c1	13.2%
CC(NC(=O)c1ccc(Cl)cc1)C1CC2CCC1C2 (stereo not drawn)	9.41%
C/C(CCc1ccco1)=N/NC(=O)CCC(=O)Nc1cccc(Cl)c1	14.2%
Cc1ccc(NC(=O)c2cc(S(=O)(=O)N3CCOCC3)cn2C)cc1Cl	16.8%
CC1=NC(C)(C)Cc2cc(C)c(C)cc21.Cl	5.37%
O=C(CN1C(=O)S/C(=C\c2ccccc2Cl)C1=O)NC1C=CS(=O)(=O)C1 (stereo not drawn)	9.49%
COc1ccc(N2CCN(C(=O)CSc3nnc4c(C)cc5ccccc5n34)CC2)cc1	23.3%
O=C1CCCc2nc(N3CCN(C(c4ccccc4)c4ccccc4)CC3)ncc21	9.18%
Cc1ccccc1Sc1ccc([N+](=O)[O-])cn1	9.4%
CCc1ccccc1NC(=O)CC(=O)Nc1ccccc1CC	22.2%
COc1ccccc1NC(=O)c1oc2ccccc2c1NC(=O)c1cc(OC)c(OC)c(OC)c1	10.9%
COc1ccccc1NC(=O)COC(=O)c1ccccc1SCC(=O)N1CCCC1	14.8%

Compound	hERG current change (%, negative = inhibition) at 1uM
CCCCCCCCCCCCCCCC(=O)NCCc1c[nH]c2ccccc12	8.74%
COc1ccc(C2C(CN3CCOCC3)C(=O)N2c2ccccc2)cc1 (stereo not drawn)	8.96%
O=S(=O)(Nc1ccc(Br)cc1)c1cccc2cccnc12	16.9%
O=C(Nc1nc(-c2cc3ccccc3oc2=O)cs1)c1ccc(Br)o1	10.1%
O=C(Nc1nc2c(F)cccc2s1)c1ccco1	6.41%
CCN1CCN(c2ccc([N+](=O)[O-])cc2C(=O)OC)CC1	-23.7%
COC1(OC)N=C(N)C2(C#N)C(c3ccc(F)cc3)C12C#N (stereo not drawn)	-6.77%
Oc1ccc(Br)cc1C=Nc1ccc(Cl)cc1	12.4%
Cc1ccc[n+](-c2nc([O-])sc2C=O)c1	14.6%
O=C(Nc1cccc(F)c1)C1CCN(S(=O)(=O)c2cccc3nonc23)CC1	4.81%
CN(C)c1ccc(/C=C(\NC(=O)c2ccccc2)C(=O)NCc2cccnc2)cc1	-0.749%
Cc1ccc(-n2c(SCn3nnc4ccccc4c3=O)nnc2-c2cccnc2)c(C)c1	-5.66%
Cc1cc(C2(O)C(=O)Nc3ccccc32)ccc1F (stereo not drawn)	14.6%
CCCCC(CC)C(=O)Nc1ccccc1C(=O)NC(C)C (stereo not drawn)	10.4%
NS(=O)(=O)c1ccc(NC(=O)c2ccc(F)cc2F)c(NC(=O)c2ccc(F)cc2F)c1	10.5%
O=C(Nc1nc2ccccc2n1CCN1CCCCC1)c1ccco1	-37.4%
Clc1ccccc1COc1ccc(/C=N/n2cnnc2)cc1	4.64%
CCn1cnc2c1c(=O)n(Cc1cccc([N+](=O)[O-])c1)c(=O)n2Cc1ccccc1	14.4%
COc1ccc(C2(C(=O)NCCCN(C)C)CCOCC2)cc1	5.65%
Cc1ccc(C(=O)CCC(=O)OCC(=O)N(C)c2c(N)n(Cc3ccccc3)c(=O)[nH]c2=O)cc1	8.67%
Cc1ccc2c(c1)nnn2C1CCN(C(=O)C2CCCCC2)CC1	-3.24%
Cc1cc(N/N=C/c2ccc(Cl)cc2)nc(NCc2ccccc2)n1	17%

Compound	hERG current change (%, negative = inhibition) at 1uM
CCCC(=O)Nc1nnc(Sc2ccc(N(C)C)cc2)s1	6.01%
CC1CCC2(CC1)NC(=O)N(CC(=O)NCc1ccc3c(c1)OCO3)C2=O (stereo not drawn)	10.5%
Cn1cccc1-c1cc(C(=O)O)[nH]n1	8.72%
Cn1cc(Cl)c(C(=O)OCC(=O)c2ccccc2)n1	17.4%
CCCn1nc(C(=O)Nc2nnc(C3CC3)s2)c2ccccc2c1=O	4.88%
COc1ccc(N(CC(=O)Nc2cccc(C)c2)S(=O)(=O)c2c(C)noc2C)cc1	14.4%
c1coc(CNc2nc3ccccc3s2)c1	12.6%
Cc1nc([N+](=O)[O-])c(NCCCO)n1Cc1ccccc1	5.38%
Nc1cccc2c(=O)c3ccccc3[nH]c12	13.8%
CCN1/C(=C2/SC(=S)N(NC(C)=O)C2=O)Sc2ccc(Cl)cc21	-5.18%
CC(C)c1ccc(/C=N/n2nnnc2Nc2ccccc2)cc1	12.1%
CC(NCC(=O)Nc1ccccc1C(=O)NC1CC1)c1ccc(S(N)(=O)=O)cc1.O=C(O)C(=O)O (stereo not drawn)	0.622%
Cc1ccc(/C=c2\s/c(=C(/C#N)C(=O)N3CCCC3)n(Cc3ccco3)c2=O)s1	-1.02%
COc1ccc(C(=O)Nc2nc3ccc(OC)cc3s2)cc1	10.5%
COc1ccc2c(c1)O[C@@H](c1cccc(C(F)(F)F)c1)[C@H](OC(=O)NCCc1ccc(OC)c(OC)c1)C2=O	0.208%
COc1cc(C(=O)Nc2nnc(CC(=O)N3CCOCC3)s2)cc(OC)c1OC	4.85%
O=C(c1ccc(CS(=O)c2cccc(Cl)c2)o1)N1CCOCC1 (stereo not drawn)	18.9%
Cc1n[nH]c(C)c1S(=O)(=O)N1CCOCC1	8.7%
O=C(CN1CCN(Cc2ccccc2)CC1)Nc1ccc(Cl)cc1	-32.3%
CCc1c(-c2ccccc2)nc2nc(C)c(C)nn12	8.9%
Cc1ccc(-n2[nH]c(C)c(/C=N/n3c(C)nc4ccccc4c3=O)c2=O)cc1	2.74%
Cn1c(=O)c2cc(S(=O)(=O)NCCC(=O)Nc3ccc(F)cc3F)ccc2n(C)c1=O	3.85%

Compound	hERG current change (%, negative = inhibition) at 1uM
COc1ccc(NC(C)=O)cc1S(=O)(=O)NC(Cc1ccccc1)C(=O)NCc1ccccc1C (stereo not drawn)	2.24%
CC(C)(C)NC(=O)c1nc2ccccc2s1	9.66%
Cc1ccc(S(=O)(=O)NN2C(=O)c3ccccc3NC2(C)C)cc1	4.79%
COc1ccc(OC)c(NC(=O)CSc2nc(C)cs2)c1	-10.6%
Cc1ccn2c(/C=N/OCc3ccc(F)cc3)c(-c3ccc(Cl)cc3)nc2c1	6.35%
CC1CCCN(CCCNS(=O)(=O)c2cc(Br)cc3c2N(C(=O)C2CC2)CC3)C1 (stereo not drawn)	12.2%
CCn1cc(C(=O)N[C@@H](C)C(=O)NCCCN2CCOCC2)c(=O)c2cc3c(cc21)OCO3	18.9%
O=C(NC1CCCCCCC1)C1CCCN(S(=O)(=O)c2cnc[nH]2)C1 (stereo not drawn)	15.9%
O=C(NCc1cccnc1)c1ccc2c(c1)N(Cc1ccccc1)CCS2	4.52%
Cc1ccc(-c2noc(CN3CCN(C(c4ccccc4)c4ccccc4)CC3)n2)cc1	17%
Cn1cc(C(=O)C(=O)NCCc2ccccc2)c2ccccc21	10.3%
COc1ccc2c(c1)C(=O)CC(c1ccc(OC)c(OC)c1)O2 (stereo not drawn)	11.5%
CCC(C(=O)Nc1ccc(C(=O)Nc2ccccc2C(=O)O)cc1)c1ccccc1 (stereo not drawn)	17.6%
O=C(COc1ccccc1Cl)Nn1cnnc1	17.3%
COc1cc2c(cc1OC)C(c1cccs1)N(C(=O)c1ccc(S(=O)(=O)N(C)C)cc1)CC2 (stereo not drawn)	-38.4%
COc1ccccc1NC(=O)c1cc2c(CO)cnc(C)c2oc1=Nc1cc(OC)c(OC)c(OC)c1	11.2%
COC(=O)C1=C(C(=O)OC)[C@@H]2Nc3ccccc3[C@@]23C[C@@H](C(=O)OC)N(C(=O)c2cc(C)oc2C)C3=N1	22.7%
Cc1cc(=O)oc2cc(OCC(=O)N3CCN(c4ccc(F)cc4)CC3)c(Cl)cc12	12.5%
O=C(COC(=O)c1ccccn1)Nc1cc(Cl)ccc1Cl	12%
Cc1ccc(C(=O)NCCNS(C)(=O)=O)cc1	2.85%
Cc1ccc(-n2nc3c(=O)n(C(C)C(=O)NCc4ccccc4Cl)nc(C)c3c2C)cc1 (stereo not drawn)	6.63%

— PMC4336329 (PLoS ONE, 2015)
